# The whole screen tested about 310,000 compounds, of which about 11,000 (3.5%) were called active. This list was built around the results that the source calls inconclusive (neither active nor inactive); the mix of calls is not that of the screen. Calls follow the shape of the dose curve; as a rule, active = well fitted inhibition curve with a large enough effect; inconclusive = small, poorly fitted or top-dose-only effect, or effect the other way; inactive = flat fitted curve, though single readings scatter. Potencies of inconclusive entries are left out as doubtful fits.
# Assay: VP16 counterscreen qHTS for inhibitors of ROR gamma transcriptional activity;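 also: Gal4-VP16 expression switched on by copper sulfate through the metallothionein promoter; nearly all actives have a fitted effect of over 50% in size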
# Settings: Drosophila S2 Gal4-VP16 UAS-luciferase, luminescence, 20 h; activity, negative = inhibition: at 53.6 µM (top of the series)
# % is scaled to controls: 0 for no effect and ±100 for the full control effect; potency is read from the fitted curve at half-maximal effect; tags tell the direction and shape of the fitted curve.
Structure (SMILES),Potency,"activity, negative = inhibition"
Cc1cccc2sc(NNC(=O)c3ccc4c(c3)OCCO4)nc12,active: 12.6 µM,
Fc1ccc2nc(Nc3nc4c(F)cc(F)cc4s3)sc2c1,active: 6.31 µM,
N/C(=N\OC(=O)N1CCOCC1)c1ccc(Cl)cc1,"inconclusive [inhibitor, full curve]",
Cc1ccc(CNC(=O)c2ccc(OCC(C)C)cc2)n1C,inactive,
CCC(C(=O)Nc1nc(C)c(C(=O)OC)s1)c1ccccc1 (configuration not stated),,inactive: -21.6% [at 10 µM]
O=c1[nH]n(CC2COC3(CCCCC3)O2)c(=O)c2ccccc12 (configuration not stated),"inconclusive [activator, single point]",
CCCNC(=S)Nc1ccc(Cl)cc1Cl,"inconclusive [inhibitor, single point]",
CCOC(=O)C(Cc1ccccc1)C(=O)Nc1ccc(NC(=O)C(Cc2ccccc2)C(=O)OCC)cc1 (configuration not stated),"inconclusive [inhibitor, single point]",
O=C(N/N=C/c1ccc(-c2cccc([N+](=O)[O-])c2)o1)c1ccc([N+](=O)[O-])cc1,active: 5.01 µM,
Cn1nc(C(=O)Nc2nc3ccccc3[nH]2)c2ccccc2c1=O,"inconclusive [activator, single point]",
COc1cccc(Cn2c(=S)[nH]c3ccc(N4CCOCC4)cc3c2=O)c1,active: 6.31 µM,
COc1ccccc1N(CC(=O)N1CCCC1)S(=O)(=O)c1ccc(C)cc1,"inconclusive [activator, single point]",
COc1cc(/C=N/NC(=O)c2cncc(Br)c2)cc([N+](=O)[O-])c1O,"inconclusive [inhibitor, partial curve]",
Cc1ccc(-c2nn(-c3ccccc3)cc2/C=C/C(=O)Nc2cccc(S(N)(=O)=O)c2)cc1,"inconclusive [inhibitor, single point]",
CCC(C)NC(=O)CSc1nc2ccccc2c(=O)n1Cc1ccc(OC)cc1 (configuration not stated),active: 10 µM,
Cc1ccc(NC(=O)c2ccc(-c3nn(C)c(=O)c4ccccc34)cc2)cc1,inactive,
CC(C)(C)OC(=O)NCCCCCNC(=O)c1[nH]cnc1C(=O)N[C@@H](Cc1ccccc1)C(=O)OCc1ccccc1,"inconclusive [inhibitor, single point]",
CCC(NC(=O)c1cc(COc2ccc(Cl)cc2OC)on1)c1ccncc1 (configuration not stated),"inconclusive [activator, full curve, poor fit]",
O=C(Cc1ccc(Cl)cc1)Nc1ncc([N+](=O)[O-])s1,"inconclusive [inhibitor, single point]",
O=C(CCc1ccccc1)Nc1nc2c(F)cc(F)cc2s1,"inconclusive [activator, partial curve, poor fit]",
CN(C(=O)COC(=O)c1cc([N+](=O)[O-])ccc1Cl)c1ccccc1,"inconclusive [activator, single point]",
CCNC(=O)c1ccc(CSc2nc3ccccc3s2)cc1,"inconclusive [inhibitor, single point]",
COc1cc(/C=C(/NC(=O)c2ccccc2Cl)C(=O)O)cc(OC)c1OC,inactive,
Cc1cnc(CNc2ccnc(-c3ccoc3)n2)cn1,inactive,

Structure (SMILES),Potency,"activity, negative = inhibition"
C/C(=N\OCC(=O)Nn1c(=O)[nH]c2ccccc2c1=O)c1ccccc1,"inconclusive [inhibitor, full curve, poor fit]",
Cc1ccc(NS(=O)(=O)c2cc3c4c(cccc4c2)C(=O)NC3=O)cc1C,"inconclusive [inhibitor, full curve, poor fit]",
Cc1nc2ccccc2n1C(C)c1ccccc1 (configuration not stated),"inconclusive [inhibitor, single point]",
CC[N+](CC)(CC#Cc1ccccc1)CC(=O)c1ccc(Cl)cc1,"inconclusive [activator, single point]",
CCC1CCCCN1S(=O)(=O)c1ccc(C(=O)Nc2nnc(C3=COCCO3)o2)cc1 (configuration not stated),active: 1 µM,
O=C1c2ccccc2NC2(CCCCC2)N1c1ccc(O)cc1,inactive,
COCC(C)n1c(-c2ccc3c(c2)NC(=O)CO3)csc1=Nc1ccc(OC(F)F)cc1 (configuration not stated),"inconclusive [inhibitor, single point]",
CC(=O)Nc1cccc(NC(=O)CSc2ncc(-c3ccc(Cl)cc3)n2Cc2ccco2)c1,"inconclusive [inhibitor, single point]",
O=C(NCCc1csc(-c2ccccc2)n1)c1ccccc1F,"inconclusive [inhibitor, single point]",
Cc1ccc(Sc2ncccc2C(=O)O)cc1,"inconclusive [inhibitor, single point]",
Cc1ccccc1OCC(O)Cn1c(=N)n(Cc2ccccc2)c2ccccc21 (configuration not stated),"inconclusive [inhibitor, single point]",
Cc1nn(-c2nc3ccccc3[nH]2)c(=O)c2ccccc12,active: 0.316 µM,
Cc1cc(=O)n2nc(N3CCCC(C(=O)NC4CCC(C)CC4)C3)sc2n1 (configuration not stated),"inconclusive [inhibitor, single point]",
O=C(Nc1nccs1)c1ccc(-c2ccc(F)cc2)o1,"inconclusive [inhibitor, single point]",
COCCNC(=O)c1ccc(S(=O)(=O)N2CCCc3ccccc32)cc1,active: 15.8 µM,
COc1ccc(-c2[nH]ncc2CN2CCN(c3ccc(F)cc3)CC2)cc1,inactive,
COC(=O)[C@@H]1C[C@@]2(O)[C@@H](O)[C@@H](O)[C@@H](O)C[C@H]2N1Cc1cc(F)ccc1F,inactive,
Cc1cc(OCCCC(=O)NC2=NCCS2)ccc1Cl,"inconclusive [inhibitor, single point]",
CC1C/C(=C/c2ccccn2)C(=O)/C(=C/c2ccccn2)C1 (configuration not stated),active: 1.41 µM,
CN1CCN(C(=S)NC(=O)c2ccc(C(C)(C)C)cc2)CC1,active: 2.51 µM,
O=C(COc1ccc(Br)cc1)NNC(=S)NCc1ccccc1,"inconclusive [inhibitor, partial curve]",
CC(=O)N1CCc2cc(S(=O)(=O)NC(C)c3ccccc3)ccc21 (configuration not stated),"inconclusive [inhibitor, single point]",
Cc1cc(N2CCN(c3ccccc3)CC2)nc(-n2nc(C)cc2C)n1,active: 1.26 µM,
C=CCc1c(C)[nH]c2c(OC)cccc2c1=S,"inconclusive [inhibitor, single point]",

Structure (SMILES),Potency,"activity, negative = inhibition"
Cc1[nH]c2ccccc2c1N=Nc1ccc(F)cc1,"inconclusive [activator, single point]",
COc1ccc(C)cc1NC(=O)COC(=O)c1ccc(OCc2ccc(Cl)cc2Cl)c(OC)c1,inactive,
COC(=O)C=P(c1ccccc1)(c1ccccc1)c1ccccc1,inactive,
CCC(=O)N/C(N)=N/c1nc2ccccc2o1,"inconclusive [inhibitor, single point]",
CC(=O)OCC1(C)CN(c2ccccc2)NC1=O (configuration not stated),"inconclusive [inhibitor, single point]",
CC1CCCCN1S(=O)(=O)c1ccc(C(=O)Nc2nnc(C3=COCCO3)o2)cc1 (configuration not stated),active: 1.26 µM,
COc1cc(/C=C/C(=O)c2ccc(C)c([N+](=O)[O-])c2)cc(OC)c1O,"inconclusive [inhibitor, single point]",
CC/C(C)=N/NC(=S)NCc1ccco1,"inconclusive [inhibitor, single point]",
CCCC(=O)Nc1sc2c(c1C#N)CCCC2,"inconclusive [activator, single point]",
COc1ccc(NS(=O)(=O)c2ccc(C)cc2)c([N+](=O)[O-])c1,inactive,
COc1ccc(CNC(=O)CSc2nc3[nH]ncc3c(=O)n2-c2ccccc2Br)cc1,inactive,
N#CC1=C(N)SC(N)=C(C#N)C1c1cccc(Oc2ccccc2)c1,"inconclusive [inhibitor, single point]",
COc1ccc(C(=O)N/N=C(\N)c2cc3ccccc3oc2=O)cc1,"inconclusive [inhibitor, single point]",
C=CCOC(=O)NC(c1ccc(F)c(F)c1)C(C(=O)CCl)C(=O)OC (configuration not stated),inactive,
COC(=O)c1ccc(COc2ccccc2/C=C(\C#N)C(=O)Nc2c(C)cccc2C)cc1,"inconclusive [inhibitor, single point]",
COC(=O)Cc1ccc(NC(=S)NCc2ccc(Cl)cc2)cc1,"inconclusive [inhibitor, single point]",
Cc1cccc(Nc2nc(NCC3CCCO3)nc(N)c2[N+](=O)[O-])c1 (configuration not stated),inactive,
C=C(C)C1CC=C(C)/C(=N\NC(=S)Nc2ccc(C)cc2)C1 (configuration not stated),active: 4.47 µM,
Cn1cnnc1SCC(=O)c1cc2ccccc2o1,"inconclusive [activator, single point]",
CN(C)c1ccc(NC(=O)Nc2cccc(Cl)c2)cc1,inactive,
C=CCNC(=S)/N=c1/ccccn1CCC,"inconclusive [inhibitor, single point]",
Cc1cc(S(=O)(=O)NCc2ccccc2)ccc1OCC(=O)NCc1ccncc1,"inconclusive [activator, full curve, poor fit]",
O=C(NC1CCN(C(=S)NCCc2ccccc2)CC1)C1CC1,"inconclusive [inhibitor, single point]",
CCOc1ccc2nc(NC(=O)Cc3cccs3)sc2c1,"inconclusive [inhibitor, partial curve]",

# Source: PubChem BioAssay AID2546 (National Center for Advancing Translational Sciences (NCATS), 2010)
